# Source: article PMC4336329 (PLoS ONE, 2015)
# In all, about 310,000 compounds went through this assay and about 14,000 (4.5%) showed an effect of 50% or more. The effect is printed as a negative number. This is one part of the list.
# Target: human ether-à-go-go-related gene (hERG) potassium channel (human, UniProt Q12809)
# Assay: primary screen, population patch clamp on CHO cells stably expressing hERG
# 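Also: peak tail current of the secondary pulse compared with the same well before compound.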
# human ether-à-go-go-related gene (hERG) potassium channel, sequence (Q12809 whole entry, looked up): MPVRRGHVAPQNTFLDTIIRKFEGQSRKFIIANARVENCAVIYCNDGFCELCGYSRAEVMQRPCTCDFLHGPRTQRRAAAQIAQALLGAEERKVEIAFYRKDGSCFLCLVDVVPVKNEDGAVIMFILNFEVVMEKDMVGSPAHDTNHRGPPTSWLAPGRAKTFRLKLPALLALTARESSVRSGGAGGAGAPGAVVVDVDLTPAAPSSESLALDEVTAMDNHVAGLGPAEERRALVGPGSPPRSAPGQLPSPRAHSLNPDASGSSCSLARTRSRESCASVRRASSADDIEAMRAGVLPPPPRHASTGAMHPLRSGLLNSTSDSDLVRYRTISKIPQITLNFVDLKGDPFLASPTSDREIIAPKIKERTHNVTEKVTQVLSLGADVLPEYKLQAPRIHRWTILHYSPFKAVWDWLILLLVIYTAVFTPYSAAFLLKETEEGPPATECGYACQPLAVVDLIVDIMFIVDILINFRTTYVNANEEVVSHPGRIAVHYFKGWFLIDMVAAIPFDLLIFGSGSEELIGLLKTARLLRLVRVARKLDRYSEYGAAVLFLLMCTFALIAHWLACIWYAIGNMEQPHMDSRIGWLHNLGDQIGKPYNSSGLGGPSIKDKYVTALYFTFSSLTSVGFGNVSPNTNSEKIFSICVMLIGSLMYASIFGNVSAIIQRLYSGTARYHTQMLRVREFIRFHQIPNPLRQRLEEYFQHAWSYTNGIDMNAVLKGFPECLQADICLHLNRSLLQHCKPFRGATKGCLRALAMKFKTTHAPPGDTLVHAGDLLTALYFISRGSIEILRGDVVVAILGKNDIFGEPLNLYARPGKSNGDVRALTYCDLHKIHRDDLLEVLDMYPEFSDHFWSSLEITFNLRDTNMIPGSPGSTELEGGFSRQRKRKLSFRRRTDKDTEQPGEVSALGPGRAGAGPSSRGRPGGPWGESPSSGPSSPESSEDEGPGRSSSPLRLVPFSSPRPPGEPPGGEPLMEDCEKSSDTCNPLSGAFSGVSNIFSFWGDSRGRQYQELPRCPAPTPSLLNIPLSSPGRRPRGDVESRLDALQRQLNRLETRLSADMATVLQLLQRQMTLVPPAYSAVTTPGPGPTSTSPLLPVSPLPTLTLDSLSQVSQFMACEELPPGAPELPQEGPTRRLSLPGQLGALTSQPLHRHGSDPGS
row,SMILES,"hERG current change (%, negative = inhibition) at 10uM [%]"
1,COc1cccc(C(=O)N2N=C(c3ccccc3)CC2(O)C(F)(F)F)c1 (stereo not shown),-26.7
2,O=C(c1ccccc1)N1CCN(Cc2ccccc2Br)CC1,-2.16
3,O=c1c(Cc2ccccc2)c(O)c2cccc3c4c(n1c23)CCCC4,7.55
4,Cc1ccc(S(=O)(=O)CCC(=O)OCC(=O)N(Cc2ccccc2)C(C)C)cc1,-33.1
5,CCN(C(=O)COC(=O)/C=C/c1ccc(OC(F)F)c(OC)c1)C1CCS(=O)(=O)C1 (stereo not shown),-13.3
6,Cc1cccc(C)c1NC(=O)N1C(C(=O)O)CSC1C(=O)O (stereo not shown),11.9
7,O=C(O)c1ccc(CN2C(=O)c3ccc(C(=O)O)cc3C2=O)cc1,-2.03
8,N=c1sccn1CC(=O)Nc1cc(S(=O)(=O)N2CCCCC2)ccc1Cl,-62.5
9,CCn1c(SCc2ccc(Cl)cc2)nc2nc3c(cc2c1=O)CCCC3,2.76
10,CC(/C=N/NC(=O)c1cc(-c2ccc(C)o2)[nH]n1)=C\c1ccccc1,1.33
11,Cc1cccc(Nc2nnc(SCC(=O)Nc3ccc(C(=O)O)cc3)s2)c1,4.2
12,CCc1nnc(NC(=O)c2ccc(S(=O)(=O)N3CCCC(C)C3)cc2)s1 (stereo not shown),5.07
13,CN(C)c1ccc(CNS(=O)(=O)c2csc(C(N)=O)c2)cc1,4.97
14,CC(=O)c1ccc(NC(=O)Nc2cccnc2)cc1,7.05
15,CCNc1ccc(S(=O)(=O)N(C)C)cc1NCC(=O)Nc1c(F)cccc1F,-27.9
16,COc1ccc(OC)c(S(=O)(=O)Nc2cccc3ccc(O)cc23)c1,6
17,COc1ccc(NC(=O)C(=O)c2cn(CC(=O)N3CCOCC3)c3ccccc23)cc1OC,16.5
18,CCOC(=O)C(=NC(C)C)NNc1cc(Cl)ccc1Cl,2.25
19,COc1ccc(Br)cc1CN(C)CC(=O)Nc1cccc(S(N)(=O)=O)c1,-25.6
20,COc1cccc(C(C(=O)NC2CCCC2)N(C(=O)c2ccco2)c2ccc(C(C)=O)cc2)c1OC (stereo not shown),-13.3
21,COc1ccc(C(=S)Nc2ccc(C)cc2)cc1,8.3
22,C=CC(C)(C)c1c(O)c(CC=C(C)C)c(O)c2c(=O)c3ccc(O)c(O)c3oc12,22.1

row,SMILES,"hERG current change (%, negative = inhibition) at 10uM [%]"
1,C=CCOc1ccc(CNCc2cccnc2)cc1.Cl,7.73
2,O=C(N/N=C/c1ccccc1O)C1(O)c2ccccc2-c2ccccc21,7.48
3,CCCNC(=O)C(Cc1ccccc1)NC(=O)c1ccccn1 (stereo not shown),9.72
4,CCc1cc(-c2[nH]ncc2-c2ccc([N+](=O)[O-])cc2)c(O)cc1OC,-18
5,COc1ccc(C2C(C(=O)O)CCC(=O)N2c2ccc(C)cc2)cc1OC (stereo not shown),-10.6
6,Cc1ccc(CNC(=O)c2ccc(N3CCC4(CC3)CC(c3ccccc3)=NO4)c([N+](=O)[O-])c2)cc1,-4.67
7,CCOc1ccc2nc(CN3CCN(Cc4ccccc4OCC)C(CCO)C3)ccc2c1 (stereo not shown),-56.9
8,Cc1ccc(C2=NN(CC(=O)NCc3cccnc3)C(=O)CC2)cc1,-4.87
9,O=C(NCCCN1CCCCCC1)C1CC(=O)N(CCc2ccccc2)C1 (stereo not shown),11.3
10,CCC1(CC)C(=O)NC(=O)NC1=NCCc1ccc(O)cc1,-0.161
11,O/N=C\c1cnc(N2CCN(c3ccccc3)CC2)s1,9.11
12,COc1ccccc1NC(=O)/C=C1\NC(=O)CS1,5.12
13,O=C(c1ccccc1)C1CCN(C(=O)c2cccs2)CC1,-8.56
14,Clc1ccc(-c2nn3c(C4COc5ccccc5O4)nnc3s2)cc1 (stereo not shown),9.73
15,COc1ccc2c(c1)C=C([C@@H]1C[C@H]3CN(c4ccccc4)C(=O)[C@]34CCCN14)CO2,-49.2
16,Nc1cc(OC(=O)c2ccco2)nn1S(=O)(=O)c1ccc(F)cc1,17.4
17,O=C1CC(C(=O)Nc2ccc(Br)cc2)S/C(=N\N=C\c2ccco2)N1 (stereo not shown),9.17
18,CC(NC(=O)/C(=C/c1cccc([N+](=O)[O-])c1)NC(=O)c1ccco1)C(=O)O (stereo not shown),0.397
19,COc1cc2c(cc1OC)C(C)N(C(=O)c1cc3c(s1)-c1c(C)cccc1OC3)CC2 (stereo not shown),2.9
20,CN1CC=C(/C=C/c2ccc(-c3ccccc3)cc2)CC1.Cl,-50.1
21,CC(=O)Nc1ccc(NC(=O)C(NS(=O)(=O)c2ccc3c(c2)OCCO3)C(C)C)cc1 (stereo not shown),3.56
22,O=c1c2c(-c3ccccc3)csc2ncn1/N=C/c1cccc([N+](=O)[O-])c1O,19.5

row,SMILES,"hERG current change (%, negative = inhibition) at 10uM [%]"
1,C=CCN(c1cccc(C(F)(F)F)c1)S(=O)(=O)c1cccc(C(=O)OCC(=O)Nc2ccccc2)c1,-4.95
2,Cc1nn(C)cc1C(=O)NNC(=S)Nc1ccccc1,7.56
3,Cn1nnc(NC(=S)NC(=O)Cc2ccccc2)n1,-3.02
4,CN(C)c1nc(-c2ccccc2)[n+](C)s1.[O-][Cl+3]([O-])([O-])[O-],7.3
5,C[C@]12CC[C@H](OS(=O)(=O)O)CC1=CC[C@@H]1[C@@H]2CC[C@]2(C)C(=O)CC[C@@H]12.O.[Na],2.13
6,CCOc1ccc(/C=C(\C)C(=O)c2c(C)cc(C)[nH]c2=O)cc1,5.24
7,O=C(CSc1ncccc1C(=O)O)c1ccccc1F,14.8
8,COc1ccccc1OCC(=O)Nc1ccccc1C(=O)Nc1cccc(C(=O)O)c1,16.3
9,CCC1(CC)Cc2ccccc2-c2nc(CCl)[nH]c(=O)c21,8.48
10,CCCCn1c(N)c(N(CC)C(=O)CN2C(=O)NC(C)(c3ccccc3)C2=O)c(=O)[nH]c1=O (stereo not shown),12.6
11,Cc1cc2ncn(CCOc3ccccc3)c2cc1C,0.668
12,COc1ccc(-c2[nH]n(-c3ccc([N+](=O)[O-])cc3)c(=O)c2C=NCCN2CCNCC2)cc1,-4.9
13,CCNc1oc(/C=C/c2ccc(OCC)cc2)nc1C#N,9.38
14,Cc1cccc(OCC(=O)NNC(=O)c2ccc([N+](=O)[O-])cc2)c1,1.5
15,CSc1ccccc1OCc1cc(C(=O)N2CCN(C)C(c3ccccc3)C2)no1 (stereo not shown),-5.98
16,Cn1c(=O)c2c(nc(-n3ccnc3)n2Cc2ccc([N+](=O)[O-])cc2)n(C)c1=O,-43.7
17,COc1cc(OC)cc(C(=O)Nc2ccc3c(c2)OCCO3)c1,-5.73
18,COC(=O)c1cc(C)ccc1OCc1ccc([N+](=O)[O-])cc1,4.13
19,CCCC(=O)NC(c1ccco1)c1cc(Cl)c2cccnc2c1O (stereo not shown),17.8
20,CCOc1ccc(N(CC(=O)Nc2ccccc2OCC)S(=O)(=O)c2c(C)noc2C)cc1,14.3
21,CCOc1ccc(NS(=O)(=O)c2cc3c4c(c2)CCN4C(=O)CC3)cc1,-20.8
22,Cc1ccc(C(=O)c2ccccc2C(=O)OCC(=O)NC(C)(C)C)cc1,-0.829

row,SMILES,"hERG current change (%, negative = inhibition) at 10uM [%]"
1,COCCOC(=O)c1c(C)oc2ccc(OC(=O)N(C)C)cc12,9.21
2,COc1ccc(NC(=O)CC23CC4CC(CC(Br)(C4)C2)C3)c(OC)c1,-14.1
3,COc1ccc(NC(=O)CCC(=O)c2cccs2)cc1Cl,17.6
4,O=C(c1cc(COc2ccc(F)cc2F)on1)N1CCN(C2CCCC2)C(=O)C1,-25.8
5,CCOc1ccc(NC(=O)CN(c2ccc(C)cc2)S(=O)(=O)c2c(C)nn(C)c2C)cc1,4.36
6,O=C(CN1CCCCC1)Nc1nc(-c2ccccc2)cs1,-35
7,COc1ccc(C2=NCC(=S)Nc3ccc(Cl)cc32)cc1Cl,2.73
8,CCN(CC)CCNC(=O)c1ccc(NC(=O)c2cc(-c3ccco3)nc3ccccc23)cc1,-30.2
9,Cc1nc2ncnn2c(C)c1Cc1ccc(Cl)cc1F,5.1
10,N#Cc1cnn2c1nc(N1CCCCC1)c1ccccc12,8.49
11,CC(=O)N1CCN(c2ccc(NCc3ccc(F)cc3)cc2)CC1,5.37
12,Nc1c(C(=O)NCc2ccccc2)c2nc3ccccc3nc2n1CCCN1CCOCC1,-1.02
13,O=C(CCNC(=O)c1ccc(Cl)cc1)NCC(c1ccco1)N1CCCCC1 (stereo not shown),-31
14,COc1ccc(C2=NN(c3ccccc3)C(c3cccs3)C2)cc1 (stereo not shown),7.46
15,Cc1ccc(CNC(=O)c2ccc(N(C)S(=O)(=O)c3ccccc3)cc2)cc1,-11
16,COC(=O)[C@@H](NC(=O)NCc1ccccc1F)C(C)C,16.1
17,COC(=O)c1ccc(C23CC4(C2)[C@H](CN(Cc2ccc(-c5ccccc5)cc2)[C@@H]4c2ccccc2)C3c2ccccc2)cc1 (stereo partly shown),13.3
18,CCCCc1nc(Cl)c(C#N)c2c1CCC2,6.53
19,O=C(Nc1ccc(F)cc1)c1cc(S(=O)(=O)Nc2ccc(F)cc2)cs1,-3.73
